Not every entry of the source has a single result; some have several. They are shown here; other results are not. There may be further records. Values given together are repeats (runs, samples, wells, individuals or studies). A tag in brackets gives the origin of a value. Letters count within one entry.

Consider one compound from PubChem BioAssay AID623887 (Johns Hopkins Ion Channel Center, 2012).

For this experiment, the target named is Potassium channel subfamily K member 9 (Homo sapiens) (UniProt Q9NPC2). Nature of the experiment: KCNK9 two-pore potassium channel inhibitors, SAR follow-up, cell-based, round 4 (AID 623887). The note with it: HEK293-KCNK9 thallium flux, FluxOR fluorescence. The procedure, abridged:
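System: Tetracycline-induced HEK293 cells stably expressing the KCNK9 channel | Also added: Potassium/thallium sulfate stimulus buffer (5x stock) | Doses: Concentration series | Schedule: 90 min dye loading, then 20 min compound preincubation at room temperature | Detection: Kinetic FluxOR fluorescence of thallium influx, 110 s after stimulus | Repeats: Replicate measurements at each compound concentration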

Sequence of UniProt Q9NPC2 (Q9NPC2 whole entry, looked up): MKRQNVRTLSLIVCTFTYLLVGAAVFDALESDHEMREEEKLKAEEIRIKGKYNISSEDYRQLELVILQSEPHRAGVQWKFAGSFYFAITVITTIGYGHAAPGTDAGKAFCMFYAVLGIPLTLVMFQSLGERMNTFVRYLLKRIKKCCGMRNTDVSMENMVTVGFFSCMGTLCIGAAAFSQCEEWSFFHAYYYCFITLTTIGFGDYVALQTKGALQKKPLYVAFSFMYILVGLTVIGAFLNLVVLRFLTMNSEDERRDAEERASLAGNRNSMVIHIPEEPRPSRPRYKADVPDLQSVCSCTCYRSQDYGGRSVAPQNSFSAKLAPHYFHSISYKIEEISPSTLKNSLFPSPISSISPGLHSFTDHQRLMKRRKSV

On to `C[C@H]([C@@H]1CC2CC[C@H]1C2)n1c(-c2ccsc2)n[nH]c1=S`, for which the IC50 (in general, the concentration needed to halve the response being measured) was 12.8 µM [sample A] and 821 nM [sample B].
